Results: PubChem BioAssay AID493208 (National Center for Advancing Translational Sciences (NCATS), 2011)
The whole screen tested about 44,000 compounds, of which about 340 (0.77%) were called active. Not shown: some 5% with an inconclusive outcome. Calls come from the whole dose curve; as a rule, active = well fitted inhibition curve with a large enough effect; inconclusive = small, poorly fitted or top-dose-only effect; inactive = flat fitted curve, though single readings scatter. The list shows a part of the results.

experiment: Acumen qHTS Assay for Inhibitors of the mTORC1 Signaling Pathway in MEF (Tsc2-/-, p53-/-) Cells: Sytravon; conditions: phospho-rpS6 immunofluorescence/PI, 24 h; series mostly up to 38.3 µM; activity change, negative = inhibition: at the top concentration; note: nearly all actives have a fitted effect of over 50% in size;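 for activity change, negative = inhibition: plate controls were DMSO for no effect and rapamycin for full effect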
In short: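 Tsc2-/-, p53-/- MEFs (empty-vector stable line) in DMEM + 10% FBS were treated with compounds 24 h at 37 degree Celsius, fixed, and immunostained for phospho-rpS6 (Alexa-488) with propidium iodide counterstain. Laser-scanning cytometry gave % positive cells, normalized against 7.5 nM rapamycin and DMSO.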
Potency is the fitted concentration of half-maximal effect.

Q: For `COc1ccc(CCNS(=O)(=O)c2ccc(N3CCCCS3(=O)=O)cc2)cc1`, which “activity change, negative = inhibition” value is on record?
A: The value was inactive: 14.8%.

Q: With `c1ccc2c(c1)ncc1nncn12` as the compound, how does the “activity change, negative = inhibition” value read?
A: Its value is inactive: -0.132%.

Q: With `CC1CCC(NC(=O)Cn2ncc3c4ccccc4n(Cc4ccc(F)cc4)c3c2=O)CC1` (configuration not stated) as the compound, how does the “activity change, negative = inhibition” value read?
A: Its value is inactive: 0.329%.

Q: For `O=c1[nH]c2ccc(NCc3ccc(-c4ccc(F)cc4)o3)cc2[nH]1`, which “activity change, negative = inhibition” value is on record?
A: The value was inactive: -17.1%.

Q: With `CC(=O)c1ccc(NC(=O)CSc2ccc3nnc(CCNS(=O)(=O)c4ccc(C)cc4)n3n2)cc1` as the compound, how does the “activity change, negative = inhibition” value read?
A: The value was inactive: 2.21%.

Q: For `Cc1ccc(Nc2ncc(C(=O)Nc3ccc(F)cc3F)c3ccccc23)cc1Cl`, which “activity change, negative = inhibition” value is on record?
A: Its value is inactive: 3.59%.

Q: Which “activity change, negative = inhibition” value does the source give for `Cc1ccc(CN(C(=O)COc2ccc([N+](=O)[O-])cc2)c2ccccn2)o1` here?
A: Its value is inactive: -2.85%.

Q: Which “activity change, negative = inhibition” value does the source give for `CCC1CCCCN1S(=O)(=O)c1cc2c(cc1C)NC(=O)CO2` (configuration not stated) here?
A: The value was inactive: -5.31%.

Q: Which “activity change, negative = inhibition” value does the source give for `COc1ccc(CNC(=O)c2nn(C)c3c2CS(=O)(=O)c2ccccc2-3)cc1` here?
A: Its value is inactive: 9.82%.

Q: Which “activity change, negative = inhibition” value does the source give for `CC(=O)c1cccc(NC(=O)C2CCN(S(=O)(=O)c3ccccc3)CC2)c1` here?
A: The value was inactive: -10.5%.

Q: For `COc1ccc(CCNC(=O)CCS(=O)(=O)c2cc3c(cc2Cl)NC(=O)CO3)cc1OC`, which “activity change, negative = inhibition” value is on record?
A: The value was inactive: 10.2%.

Q: For `O=C(COc1ccccc1)Nc1nnc(SCc2cc(=O)n3cc(Cl)ccc3n2)s1`, which “activity change, negative = inhibition” value is on record?
A: The value was inactive: 7.41%.

Q: Which “activity change, negative = inhibition” value does the source give for `CCc1nnc(SCC(=O)Nc2cccc(C(F)(F)F)c2)c2cc3oc(C)cc3n12` here?
A: Its value is inactive: -0.283%.

Q: For `COc1ccc(-c2noc(CSc3nnc(Cc4ccccc4)n3-c3cccc(C)c3)n2)cc1`, which “activity change, negative = inhibition” value is on record?
A: Its value is inactive: -29.8%.

Q: With `COc1ccc(/C=C/C(=O)Nc2ccc3nc4c(c(Nc5ccc(OC)c(OC)c5)c3c2)CCCC4)cc1` as the compound, how does the Potency read?
A: Its Potency is active: 3.69 µM.

Q: Which “activity change, negative = inhibition” value does the source give for `CCCc1nn2cc(-c3ccc(C)c(C)c3)nc2s1` here?
A: Its value is inactive: 0.841%.

Q: Which “activity change, negative = inhibition” value does the source give for `CCOC(=O)Cc1c(C)nc2c(-c3ccc(Cl)cc3)c(C(F)(F)F)nn2c1C` here?
A: Its value is inactive: -3.32%.

Q: Which “activity change, negative = inhibition” value does the source give for `Cc1oc(-c2ccccc2Cl)nc1CS(=O)(=O)CC(=O)NC(C)c1ccccc1` (configuration not stated) here?
A: The value was inactive: -10.9%.

Q: With `CCC(C(=O)Nc1ccccc1OC)n1c(C(=O)OC)cc2sc(Cl)cc21` (configuration not stated) as the compound, how does the “activity change, negative = inhibition” value read?
A: Its value is inactive: -7.85%.

Q: For `Cc1ccc2onc(CNC(=O)NCc3ccccc3)c2c1`, which “activity change, negative = inhibition” value is on record?
A: Its value is inactive: 6.26%.

Q: For `CC(=O)N1CCc2cc(S(=O)(=O)NC(CC(C)C)C(=O)NCCc3cccc(C)c3)ccc21` (configuration not stated), which “activity change, negative = inhibition” value is on record?
A: The value was inactive: -8.87%.

Q: With `CCOCCCNC(=O)c1ccc2c(=O)n(CCc3ccc(OC)c(OC)c3)c(=O)[nH]c2c1` as the compound, how does the “activity change, negative = inhibition” value read?
A: The value was inactive: -0.407%.

Q: With `CCOc1ccccc1CNC(=O)CSc1nnc(C)c2c(C)n(-c3ccccc3)nc12` as the compound, how does the “activity change, negative = inhibition” value read?
A: Its value is inactive: -12.1%.

Q: For `CCCCOc1ccccc1C(=O)N(Cc1cccc(F)c1)C1CCS(=O)(=O)C1` (configuration not stated), which “activity change, negative = inhibition” value is on record?
A: The value was inactive: 4.42%.

Q: Which “activity change, negative = inhibition” value does the source give for `Cc1ccc(NC(=O)c2ccc(CNS(=O)(=O)c3ccc4c(c3)C(C)(C)C(=O)N4C)cc2)cc1F` here?
A: The value was inactive: -22%.

Q: With `CCOc1ccc(CCNC(=O)CSc2nnnn2-c2ccc(C)cc2C)cc1OCC` as the compound, how does the “activity change, negative = inhibition” value read?
A: Its value is inactive: -1.41%.

Q: For `O=C(NCC(c1cccnc1)N1CCc2ccccc21)c1ccc(F)cc1` (configuration not stated), which “activity change, negative = inhibition” value is on record?
A: Its value is inactive: -8.28%.

Q: Which “activity change, negative = inhibition” value does the source give for `CCOc1ccc(NC(=O)N(C)CCc2c(C)nn(C)c2C)cc1` here?
A: Its value is inactive: 4.28%.

Q: With `CCOC(=O)C1=C(CN(C)Cc2ccccc2)NC(=O)NC1c1ccc(OC)cc1` (configuration not stated) as the compound, how does the “activity change, negative = inhibition” value read?
A: Its value is inactive: -1.1%.

Q: Which “activity change, negative = inhibition” value does the source give for `COc1cc(OC)c(NC(=O)C(Cc2ccccc2)NS(=O)(=O)c2cccc3nsnc23)cc1Cl` (configuration not stated) here?
A: The value was inactive: 2.44%.

Q: Which “activity change, negative = inhibition” value does the source give for `CN(C)c1ccc(NC(=O)CSc2nc3ccsc3c(=O)n2CCCCCC(=O)O)cc1` here?
A: The value was inactive: 0.25%.

Q: Which “activity change, negative = inhibition” value does the source give for `Cc1c(C(=O)N(Cc2ccco2)Cc2ccccc2Cl)oc2ccc(F)cc12` here?
A: Its value is inactive: -18.4%.

Q: With `COc1ccc(OC(C)C(=O)NCc2nc(-c3cccc(C)c3)no2)cc1` (configuration not stated) as the compound, how does the “activity change, negative = inhibition” value read?
A: The value was inactive: -7.05%.

Q: With `CC(C)CCNC(=O)CN1C(=O)c2cccnc2Sc2ccccc21` as the compound, how does the “activity change, negative = inhibition” value read?
A: Its value is inactive: -18.6%.

Q: Which “activity change, negative = inhibition” value does the source give for `CC(=O)c1cccc(NC(=O)Cc2noc3ccccc23)c1` here?
A: Its value is inactive: 11.4%.

Q: For `COc1ccc(CC(=O)Nc2cc(-c3cn4cccnc4n3)ccc2OC)cc1`, which “activity change, negative = inhibition” value is on record?
A: The value was inactive: -18.3%.

Q: For `CCCCC(=O)NC1(C(F)(F)F)C(=O)Nc2c1c(=O)[nH]c(=O)n2-c1ccc(C)c(C)c1` (configuration not stated), which “activity change, negative = inhibition” value is on record?
A: The value was inactive: 2.29%.

Q: With `O=C(Nc1ccc2nc(SCCOc3ccccc3Cl)sc2c1)c1ccc2c(c1)OCO2` as the compound, how does the “activity change, negative = inhibition” value read?
A: Its value is inactive: -10.3%.

Q: With `COc1cccc(NC(=O)CSC2=Nc3ccccc3C3=NC(CC(=O)NCc4ccc5c(c4)OCO5)C(=O)N23)c1` (configuration not stated) as the compound, how does the “activity change, negative = inhibition” value read?
A: The value was inactive: 0.181%.

Q: Which “activity change, negative = inhibition” value does the source give for `CCCCNC(=O)c1cnc2sc(N3CCCCCC3)nn2c1=O` here?
A: Its value is inactive: -4.38%.

Q: Which “activity change, negative = inhibition” value does the source give for `COc1ccc(C)cc1NC(=O)Nc1ccccc1OCc1cc(=O)n2ccccc2n1` here?
A: The value was inactive: -14.6%.

Q: With `Cc1cc(C)c(NC(=O)C(=O)NCC(c2cccnc2)N2CCN(Cc3ccccc3)CC2)c(C)c1` (configuration not stated) as the compound, how does the “activity change, negative = inhibition” value read?
A: The value was inactive: -4.55%.

Q: For `Cc1ccccc1-c1noc(-c2ccc(N3CCN(C)CC3)c([N+](=O)[O-])c2)n1`, which “activity change, negative = inhibition” value is on record?
A: The value was inactive: 2.93%.

Q: For `COc1ccc2c(c1)c1c(c(=O)n(-c3ccccc3)c(=O)n1CC(=O)NCc1ccc(C)cc1)n2C`, which “activity change, negative = inhibition” value is on record?
A: The value was inactive: -5.05%.

Q: Which “activity change, negative = inhibition” value does the source give for `CSc1nn(Cc2cccc(Cl)c2)c(N(C(C)=O)C(C)=O)c1S(=O)(=O)c1ccccc1` here?
A: The value was inactive: 2.38%.

Q: With `COc1ccc(CC(=O)N(Cc2nc(-c3ccc(C)cc3)no2)C(C)C)cc1` as the compound, how does the “activity change, negative = inhibition” value read?
A: The value was inactive: -4.11%.

Q: With `COc1ccc(C2C(=O)N(C3CCC(C)CC3)CC(=O)N2C2CCCC2)cc1OC` (configuration not stated) as the compound, how does the “activity change, negative = inhibition” value read?
A: The value was inactive: 4.98%.
